# Source: PubChem BioAssay AID1476 (National Center for Advancing Translational Sciences (NCATS), 2009)
# Hit rate of the full screen: of about 200,000 compounds, about 4,500 (2.2%) were called active. This list was built around the results that the source calls inconclusive (neither active nor inactive); the mix of calls is not that of the screen. The call rests on the fitted dose curve; in most records, active means well fitted inhibition curve with a large enough effect; inconclusive means small, poorly fitted or top-dose-only effect, or effect the other way; inactive means flat fitted curve, though single readings scatter. Potencies beside an inconclusive call are fits to weak or partial responses and may not hold up.
# Target: Cruzipain (Trypanosoma cruzi) (UniProt P25779)
# Assay: qHTS Assay for Promiscuous and Specific Inhibitors of Cruzain (without detergent); further: nearly all actives have a fitted effect of over 40% in size;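 on max response, negative = inhibition: plate controls were enzyme without inhibitor for no effect and buffer without enzyme for full effect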
# Details: purified cruzain, Z-FR-AMC fluorescence, no detergent
# In short: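 Detergent-free condition (0.00005% Triton X-100) in acetate buffer pH 5.5 with DTT. 1.5 nM enzyme and compound were pre-mixed 15 min, then 2 uM Z-FR-AMC substrate added; reaction progress from fluorescence change between first and third reads (60 s).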
# Potency means the concentration at half of the fitted maximal effect; tags describe the fitted curve by direction and shape.
# Chain of UniProt P25779 (P25779 whole entry, looked up): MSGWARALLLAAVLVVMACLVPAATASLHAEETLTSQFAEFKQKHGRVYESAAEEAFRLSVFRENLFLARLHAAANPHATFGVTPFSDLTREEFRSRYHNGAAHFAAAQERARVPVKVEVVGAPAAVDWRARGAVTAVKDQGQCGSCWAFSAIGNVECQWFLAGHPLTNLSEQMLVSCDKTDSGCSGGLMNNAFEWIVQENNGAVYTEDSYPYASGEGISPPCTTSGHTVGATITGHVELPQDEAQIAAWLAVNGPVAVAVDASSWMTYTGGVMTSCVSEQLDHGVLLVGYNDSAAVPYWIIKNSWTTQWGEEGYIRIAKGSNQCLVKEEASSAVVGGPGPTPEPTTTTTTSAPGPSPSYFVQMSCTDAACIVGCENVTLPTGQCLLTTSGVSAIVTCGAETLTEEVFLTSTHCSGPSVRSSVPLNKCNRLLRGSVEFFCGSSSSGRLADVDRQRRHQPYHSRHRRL
SMILES,Potency,"max response, negative = inhibition"
Cc1ccc(S(=O)(=O)c2c(C(=O)c3ccccc3)cnc3cc4c(cc23)OCCO4)cc1,"inconclusive: 39.8 µM [inhibitor, single point]",
CSc1ncc(Cl)c(C(=O)Nc2cccc3ccccc23)n1,"inconclusive: 7.94 µM [inhibitor, single point]",
C=CCSc1nnc(NC(=O)COc2ccc3ccccc3c2)s1,active: 12.6 µM,
Nc1ccc(-c2nc3ccc(N)cc3o2)cc1,active: 15.8 µM,
Cc1ccc(CN(Cc2cccn2-c2nnc(N3CCCC3=O)s2)C(=O)Nc2ccccc2C(F)(F)F)cc1,"inconclusive: 39.8 µM [activator, single point]",
COc1ccc(-n2c(C)cc(C(=O)CSc3nnc(-c4cccs4)o3)c2C)cc1,"inconclusive: 31.6 µM [inhibitor, single point]",
CCn1c2ccccc2c2cc(N)ccc21,active: 7.94 µM,
Cc1ccc2nc(SCc3nnc(-c4ccccc4Br)o3)[nH]c2c1,active: 20 µM,
S=C1NCCc2ccccc2C1c1ccccc1Cl (configuration not stated),"inconclusive: 25.1 µM [inhibitor, partial curve, poor fit]",
COc1ccccc1N1CCN(C(=O)CN2C(=O)COc3ccc(S(=O)(=O)N4CCCC4)cc32)CC1,"inconclusive: 31.6 µM [activator, partial curve]",
COC(=O)c1c(NC(=S)Nc2ccc(F)cc2[N+](=O)[O-])sc2c1CCCCC2,"inconclusive: 31.6 µM [inhibitor, single point]",
O=C(CN1C=NS(=O)(=O)c2ccc(C(F)(F)F)cc21)Nc1cccc(C(F)(F)F)c1,,inactive: -4.56%
COc1ccccc1NC(=O)c1ccc(NC(=O)COC(=O)C(C)C)cc1,,inactive: 2.95%
CCNc1cc2oc(=O)c(CN3CCOCC3)c(C)c2cc1C,"inconclusive: 31.6 µM [inhibitor, single point]",
COC(=O)c1ccccc1NC(=O)c1ccc2c(=O)n3c(nc2c1)CCCCC3,"inconclusive: 39.8 µM [activator, single point]",
Cc1ccc2sc(NNC(=O)c3ccc4c(c3)OCCO4)nc2c1C,"inconclusive: 31.6 µM [inhibitor, single point]",
COc1ccccc1-c1ccc(/C=C2/C=C(CC(C)C)OC2=O)o1,active: 31.6 µM,
CC/C(O)=C1\C(=O)CC(c2ccccc2)CC1=NCCc1c(C)[nH]c2ccc(C)cc12 (configuration not stated),"inconclusive: 3.98 µM [activator, single point]",
CCOC(=O)c1ccc(N2C(=O)c3n[nH]c(-c4ccco4)c3C2c2ccc([N+](=O)[O-])cc2)cc1 (configuration not stated),"inconclusive: 25.1 µM [inhibitor, single point]",
CCc1cc2c(-c3ccccc3)cc(=O)oc2c2c1OCN(Cc1ccc(F)cc1)C2,"inconclusive: 6.31 µM [inhibitor, partial curve]",
Cc1ccnc(NS(=O)(=O)c2ccc(NC(=O)c3cc(-c4ccc(Br)cc4)nc4ccccc34)cc2)n1,"inconclusive: 31.6 µM [inhibitor, single point]",

SMILES,Potency,"max response, negative = inhibition"
COc1ccc(C(=O)NCC(c2ccc(N(C)C)cc2)N2CCc3ccccc32)cc1 (configuration not stated),active: 12.6 µM,
N#C/C(=C(/O)CN1CCN(c2ccccc2F)CC1)c1nc(-c2ccc(Cl)cc2)cs1,"inconclusive: 39.8 µM [inhibitor, single point]",
COc1ccc(Cl)cc1N(CC(=O)NC(C(C)C)C(C)C)S(C)(=O)=O,"inconclusive: 25.1 µM [activator, single point]",
COCCN1CCn2c(nc3cc(NC(=O)c4cccs4)ccc32)C1,,inactive: 3.44%
CCc1ccc(C2=NNC(=Nc3cccc(S(=O)(=O)N(C)C)c3)SC2)cc1,"inconclusive: 25.1 µM [inhibitor, single point]",
COc1ccc(-c2noc(-c3ccc(Cl)cc3[N+](=O)[O-])n2)cc1OC,"inconclusive: 25.1 µM [activator, single point]",
Cn1cccc1Cc1nnc(SCC(=O)N2CCN(c3ccccc3)CC2)n1-c1ccc(F)cc1,"inconclusive: 25.1 µM [activator, partial curve]",
CC(NC(=O)c1ccc2c(c1)N(Cc1ccc(Cl)cc1)C(=O)c1ccccc1S2=O)c1ccccc1 (configuration not stated),"inconclusive: 31.6 µM [inhibitor, single point]",
CN(C)c1ccc(C(CNC(=O)c2ccccc2)c2c[nH]c3ccccc23)cc1 (configuration not stated),"inconclusive: 39.8 µM [inhibitor, single point]",
Cc1ccc(-c2csc(N/N=C/c3ccco3)n2)c(C)c1,"inconclusive: 31.6 µM [inhibitor, single point]",
Cc1cccc(C)c1NC(=O)CCCN1C(=O)CCn2nc(-c3cn(C)c4ccccc34)cc21,"inconclusive: 20 µM [activator, partial curve]",
COc1ccc(NC(=O)Cn2cccc2)cc1Cl,"inconclusive: 39.8 µM [activator, single point]",
COc1cccc(Nc2ncc3nc(-c4ccccc4)c(=O)n(Cc4cccs4)c3n2)c1,active: 5.01 µM,
Cc1ccc(S(=O)(=O)n2nc(-c3ccco3)nc2NCc2ccccc2Cl)cc1,"inconclusive: 39.8 µM [inhibitor, single point]",
CCn1c(=O)cc(OCC(=O)N2CCN(c3ccccc3OC)CC2)c2ccccc21,"inconclusive: 39.8 µM [activator, single point]",
CN(Cc1ccccc1)C(=O)[C@H](Cc1ccc2ccccc2c1)NC(=O)[C@@H]1C[C@@H](O)CN1C(=O)c1cn(C)c2ccccc12,"inconclusive: 8.91 µM [activator, partial curve]",
O=C1NC(=S)N/C1=C/c1ccc(Oc2ccc(C(F)(F)F)cc2[N+](=O)[O-])c(Cl)c1,"inconclusive: 25.1 µM [inhibitor, single point]",
Cc1ccccc1CNC(=O)c1cc2cc(S(=O)(=O)N3CCCCC3)ccc2n1C,"inconclusive: 20 µM [inhibitor, partial curve, poor fit]",
COc1ccc(-c2cc(C(=O)OCC(=O)N3CCCC3)c3ccccc3n2)cc1,"inconclusive: 31.6 µM [activator, single point]",
CC[C@H](C)C(=O)O[C@H]1CCC=C2C=C[C@H](C)[C@H](CC[C@@H]3C[C@H](O)CC(=O)O3)[C@H]21,"inconclusive: 20 µM [activator, partial curve]",
Cc1cc(N2CCN(c3cccc(C)c3C)CC2)n2nc(C)c(-c3ccc(Cl)cc3)c2n1,,inactive: -18.1%

SMILES,Potency,"max response, negative = inhibition"
COc1cc2c(cc1OC)[C@@H]1C(=O)c3ccc4oc(C(C)C)cc4c3OC1CO2 (some centres not stated),"inconclusive: 25.1 µM [activator, single point]",
CCOc1ccccc1/C=C(\C#N)C(N)=O,,inactive: -1.86%
O=C(O)C1C2C=CC3(CN(C4CCCC4)C(=O)C13)O2 (configuration not stated),,inactive: -9.03%
CCOC(=O)c1c(C)oc2nc(C)nc(NCCCN3CCN(c4ccc(F)cc4)CC3)c12,,inactive: -13.5%
O=C(CSc1nnc(CCc2ccccc2)n1-c1ccc(Cl)cc1)NCc1ccccc1,"inconclusive: 20 µM [activator, single point]",
CSCc1nnc(NC(=O)c2ccc(S(=O)(=O)N(CC(C)C)CC(C)C)cc2)o1,"inconclusive: 10 µM [activator, partial curve, poor fit]",
O=C(NCC1CCCO1)c1c(O)c2cccc3c2n(c1=O)CCC3 (configuration not stated),"inconclusive: 39.8 µM [activator, single point]",
COc1ccc(Cl)cc1NC(=O)C(=O)N/N=C/c1cc(C)n(-c2ccc(C)cc2)c1C,active: 12.6 µM,
Cc1ccccc1Nc1nc(-c2sc(NC(=O)c3ccc([N+](=O)[O-])cc3)nc2C)cs1,active: 10 µM,
O=C(CNC(=O)Cc1ccccc1)N=Nc1c(O)n(Cc2ccc3c(c2)OCO3)c2ccccc12,"inconclusive: 31.6 µM [inhibitor, single point]",
CCC(C)(C)n1nnnc1C(c1cc2cccc(C)c2[nH]c1=O)N1CCN(C(=O)c2ccco2)CC1 (configuration not stated),"inconclusive: 25.1 µM [activator, single point]",
COc1cc2c(cc1OC)/C(=C/C(=O)N1CCOCC1)NC(C)(C)C2,,inactive: 0.462%
CCN(CCCNC(=O)c1cc2cc3ccc(OC)cc3nc2s1)c1cccc(C)c1,"inconclusive: 25.1 µM [inhibitor, single point]",
CC(C)(C)NC(=O)[C@H]1CN(Cc2cccnc2)CCN1C[C@@H](O)C[C@@H](Cc1ccccc1)C(=O)N[C@H]1c2ccccc2C[C@H]1O,"inconclusive: 39.8 µM [activator, single point]",
NS(=O)(=O)c1ccc(NC(=O)COC(=O)c2c3c(nc4ccccc24)/C(=C\c2ccc4c(c2)OCO4)CCC3)cc1,active: 20 µM,
Cc1ccc(NC(=O)c2ccc(OC(=O)COc3ccc(Cl)cc3C)cc2)cc1,active: 12.6 µM,
Cc1ccc(Cl)cc1N1CCN(C(=O)c2ccc3c(c2)N(Cc2ccccc2F)C(=O)c2ccccc2S3=O)CC1 (configuration not stated),"inconclusive: 39.8 µM [inhibitor, single point]",
C(=C\c1nnc2c3ccccc3ncn12)/c1ccccc1,"inconclusive: 25.1 µM [inhibitor, single point]",
C=C1CCC(O)C/C1=C\C=C1/CCCC2(C)C1CCC2C(C)/C=C/C(C)C(C)C (configuration not stated),"inconclusive: 20 µM [activator, partial curve]",
O=C(N/N=C/c1cc(Cl)ccc1O)c1ccc(Br)cc1,"inconclusive: 31.6 µM [inhibitor, single point]",
